The results in this text go back to the RNAGym collection of RNA variant scans (doi:10.7554/elife.90254).

The chains are these.
B1: LINE1-full (parent)
chain: UACGUAGGUGGUUUUCCCCUGAUAGUGCUAAGGGGGCCUGGAAGUUUGGACUGGGCAGAGCUCAACACAGCGUGGCAAAGUGGCUGUGGCUAGACUGCCUCUCUGGAUUCCUCGUCACUCAGCAGGGCAUCUCUGAGAGAAAUGCC

Read counts are not given, so values of variants with three or more changes are uncertain.

In this series the parent is B1. Put plainly: self-cleavage, relative activity (ratio to wild type); higher = more cleavage; in vitro, sequencing; the parent is a self-cleaving ribozyme.
In the case of U12A G34U U85C U104A A121U, the self-cleavage is 0.13.

For U12C U20C A69G A117U A136G A142G, the self-cleavage amounted to 0.79.

As for U9G U29A A42G U112A U130C U143C, the self-cleavage was 2.04.

As for U12C U15C A65G, the self-cleavage was 0.51.

As to U12C U15C A64G G125A, the self-cleavage turned out to be 0.63.

With G11A G41U G58A, the self-cleavage amounted to 0.03.

With G11A A22G A94G U134A A140G, the self-cleavage worked out at 0.1.

As to U12C A43U U73C U130A, the self-cleavage came out at 0.93.

Consider U12C U45C U81C, for which the self-cleavage was found to be 2.53.

Consider U9G A67U G106A, for which the self-cleavage is 0.34.

With U9G U13C A64U A124G U132A, the self-cleavage was 0.62.

For the variant G11U U15C U81C, the self-cleavage stood at 1.02.

Take U12C G21A U45C: the self-cleavage was determined as 0.29.

Regarding G11A U46A A94G U96C, the self-cleavage is 0.

In the case of U12C G74U A78G, the self-cleavage was found to be 0.44.

Turning to U12C A42U U52C U109A, the self-cleavage is 0.79.

For the variant U9G U45C U96C, the self-cleavage was determined as 0.51.

With G10U A31G A124G A129G, the self-cleavage came out at 1.74.

G11A U96C C111A: the self-cleavage amounted to 0.

Take G11A U26C A77G U132C A140G: the self-cleavage was found to be 0.84.

As to U12C U13C A22C U45A A129G, the self-cleavage stood at 1.81.

With G11A A69U A138U, the self-cleavage is 0.09.

With U12C A24G U26G U45A C76U U91C, the self-cleavage was 0.54.

Regarding U12C A79G U119C, the self-cleavage is 0.38.

Take U12C G25A U104C A140G: the self-cleavage is 1.13.

For the variant U12A U100C U102C A142G, the self-cleavage worked out at 2.36.

For U12A G53U A94G, the self-cleavage worked out at 0.

As to U12C A138G A140G, the self-cleavage was 1.94.

U12C A117G G126C: the self-cleavage amounted to 0.

Consider G11A U29C A30U G34U, for which the self-cleavage came out at 0.54.

Take U12C U29C U45C: the self-cleavage was determined as 2.56.

As for U12C A43G G105U A121G U143C, the self-cleavage came out at 2.81.

Regarding U12C U20C U39A A107G, the self-cleavage turned out to be 1.09.

On to G10U A92U U132A, for which the self-cleavage turned out to be 0.97.

Turning to G10U G58U U73C U87C, the self-cleavage worked out at 0.09.

Take U12C U45G U62C: the self-cleavage was 0.25.

On to U12C A30G U115C A142G, for which the self-cleavage came out at 0.88.

Regarding U12C A22G U47A A140U A142G, the self-cleavage is 1.01.

U12C U13C U47C U102C: the self-cleavage is 1.23.

As for G10C A57G U100A A136C, the self-cleavage amounted to 0.49.

On to U12C A50G A59G G83A A94U, for which the self-cleavage turned out to be 0.21.

Turning to U12C U45A C84G C98G, the self-cleavage turned out to be 0.07.

Take U12C U13C U26A: the self-cleavage was 0.96.

For U12C U39C U104C, the self-cleavage stood at 1.69.

U12C U13A A65G U143C: the self-cleavage was 0.31.

In the case of U12C A57U C71G U91C U115C, the self-cleavage stood at 0.11.

For the variant U12C U26A A107G, the self-cleavage was determined as 1.44.

Consider U12C A57G U87C A124U, for which the self-cleavage came to 0.

For the variant U12C A42U U96G A129U A142G, the self-cleavage worked out at 0.

For U12C A59G A79G, the self-cleavage is 0.

Regarding U12C U39A A129C, the self-cleavage came to 1.23.

Turning to U12C C18A U62A, the self-cleavage worked out at 0.16.

Take U9G U12A U13C G60A C131A: the self-cleavage worked out at 0.

For the variant U12C A78G U85C A129U, the self-cleavage turned out to be 0.35.

Take U12C U20A G34A G60U A140G: the self-cleavage worked out at 0.02.

For the variant G10C G34A A69G G127A, the self-cleavage was 0.44.

Take U12C G97A A107G G139A: the self-cleavage turned out to be 0.13.

Consider U9G U39C U73C A140G, for which the self-cleavage amounted to 1.02.

Take G10U U23C U45C U73C: the self-cleavage worked out at 0.

With G11A A78G A121C A129G, the self-cleavage is 0.67.

With U12C U14A A138G, the self-cleavage is 1.67.

For U12C A24G G75A U81G, the self-cleavage was 0.78.

Turning to U12C A22G A136U, the self-cleavage was 0.84.

U12C A79G U87A: the self-cleavage is 0.13.

Consider G10A U39C A64G, for which the self-cleavage worked out at 0.27.

As for U9G U39C G74A U108C, the self-cleavage amounted to 0.3.

As for G11A U20C U26G U108C A142G, the self-cleavage stood at 1.63.

Turning to U12C U29C G48A A59G A136G U143A, the self-cleavage came out at 0.12.

Regarding U12C C28U G53U U87A U132C, the self-cleavage was found to be 0.

Regarding G10A U29C U109C U132C, the self-cleavage came to 1.28.

Regarding U12C U29C U47C U112C, the self-cleavage worked out at 0.

Turning to U12C A24G A59U, the self-cleavage is 0.43.

On to U12C A69U U108C U119C, for which the self-cleavage is 0.28.

As to U12C A69G U104C, the self-cleavage was 0.

Regarding U12C A43G A138G, the self-cleavage turned out to be 1.23.

On to U12C A31G G32A U73A A142G, for which the self-cleavage turned out to be 1.87.

In the case of U12C A64U U91C A107G, the self-cleavage was 0.29.

As to U12C C19U A69U G82A U85C A136U, the self-cleavage amounted to 0.08.

U12A A57G G82A: the self-cleavage was found to be 0.95.

With G11A U14C U91C A142G, the self-cleavage amounted to 0.4.

As for U12C U15C C28U A59G A124G A141U, the self-cleavage came out at 0.07.

With U12C G125A A136U, the self-cleavage was found to be 1.19.

Regarding G10A U102A A141G, the self-cleavage was determined as 1.1.

U12C U46C A77U: the self-cleavage amounted to 1.5.

Turning to U12C A121U A129U U130C, the self-cleavage was determined as 1.43.

Take U12C A79G C99U: the self-cleavage was determined as 0.39.

In the case of U12C U13C U52C A65G, the self-cleavage was 0.

With G10A A50U U96A, the self-cleavage came to 0.05.

In the case of U12C A124U U132C, the self-cleavage was determined as 2.33.

Take G11U A50G A64U A77G U102C: the self-cleavage worked out at 0.93.

As to G11A U13C A77G G93U U96A, the self-cleavage came out at 0.12.

For U12C C19U A30G U130C, the self-cleavage came out at 1.06.

For the variant U12A A78G U104A U115A A124U, the self-cleavage was determined as 1.27.

In the case of U12C U13C G53A, the self-cleavage is 1.82.

Turning to U12A G54A G114C, the self-cleavage was 0.41.

U12C A121U A124U: the self-cleavage was determined as 1.8.

As to U12C U45C U100A, the self-cleavage is 0.75.

Turning to G10A A67U A69U A79G U87C U115C, the self-cleavage amounted to 0.

Consider U12C A77G U85C, for which the self-cleavage came to 0.81.

As for U12C G83A U119C U134G, the self-cleavage was 1.51.

As to U12C G27A A59G C103U A138U A141G, the self-cleavage turned out to be 0.12.

Regarding U12C U23C U26A A64G U87A, the self-cleavage stood at 0.77.

On to U12C U14C U132C, for which the self-cleavage was 1.29.

Take U12C G49A A141G: the self-cleavage worked out at 1.01.

In the case of U9G C101U A124U A142G, the self-cleavage is 0.94.

For U12A A79G U115C, the self-cleavage was 2.68.

For the variant U12C U20G U96C, the self-cleavage is 0.41.

On to U12A G34A G125A A142G, for which the self-cleavage turned out to be 0.65.

As for U12C A69G G88A U100G, the self-cleavage was 0.

Take G10U A24C U26C A31G U47A C110U: the self-cleavage came out at 0.92.

Turning to U12A U13C A78U, the self-cleavage was 1.32.

Turning to U12C G127A G135A, the self-cleavage is 1.72.

Consider U12C U14C A57G U62C, for which the self-cleavage was determined as 0.

For the variant U12A U13C C123A, the self-cleavage amounted to 1.41.

Take U12C A57G U102C: the self-cleavage was 0.

Regarding G10A U20C A138G, the self-cleavage was found to be 1.65.

In the case of U12C U26C U73A, the self-cleavage worked out at 1.55.

On to G10U U26C A31U, for which the self-cleavage was determined as 0.84.

For the variant G10A A69G U91C A92U A129U U130C, the self-cleavage came out at 0.

Regarding U12C U46C A107G, the self-cleavage amounted to 1.2.

Regarding U12A A24U U26A U62C G106U, the self-cleavage was 0.09.

For the variant U12C U14C A64G U102C U104A, the self-cleavage stood at 1.31.

In the case of U12C U13C U39C U45C, the self-cleavage came to 1.78.

As to U9G U132C A142U, the self-cleavage stood at 0.59.

In the case of U12C A69U A79U A129C U130C, the self-cleavage turned out to be 0.25.

As for U12C G32A G34A U62A U87C, the self-cleavage stood at 0.18.

In the case of U12C U15C U47A A64U C90U, the self-cleavage worked out at 0.01.

With U12C C61G U81G, the self-cleavage was 0.

Consider U12C U45C G49U, for which the self-cleavage stood at 0.9.

For the variant U12C C51A A117U, the self-cleavage stood at 1.33.

Take U12C U13C U39A A50G A129G: the self-cleavage is 1.15.

With G10A A31U G55U U109C, the self-cleavage is 0.13.

In the case of U12C C16U A67U A94U, the self-cleavage was 0.22.

In the case of U12C G34A U108A, the self-cleavage amounted to 0.79.

Consider U12C U26A A59G, for which the self-cleavage worked out at 0.33.

Take U12C U13C U20C U143A: the self-cleavage is 1.08.

Take U12C A50G A69G: the self-cleavage was found to be 1.1.

In the case of U12C A59G U87A, the self-cleavage stood at 0.15.

In the case of U12C A22U A50G A59G U62A, the self-cleavage came to 0.

In the case of U12A U15C A77G, the self-cleavage came to 1.72.

Turning to U12A C38A A43G, the self-cleavage came to 0.83.

For the variant U12C U13C A121G U132C, the self-cleavage was 0.57.

On to U12C C61A U87A U91C A136U, for which the self-cleavage is 0.07.

For G10A A30G A42G A94G, the self-cleavage came to 0.

U12C U15A G40C A50G C51U: the self-cleavage stood at 0.67.

As for U12C A121U A136G, the self-cleavage was determined as 2.2.

For the variant U12C G34A A42C A43G U46C U52A, the self-cleavage was 0.4.

As to U12C A30G U73C, the self-cleavage worked out at 2.16.

Regarding U12A U13C U104A, the self-cleavage amounted to 0.

Consider U12C A117U A124U, for which the self-cleavage is 1.44.

On to U12C A22U G48A U85C, for which the self-cleavage was 0.28.

U12C U15C U20A U134C: the self-cleavage amounted to 0.79.

Take U12C G36A U47G U81A A94G A107G: the self-cleavage amounted to 0.8.

For the variant U12C C37G U143C, the self-cleavage was 1.25.

In the case of U12C A43G G83C U100C G144A, the self-cleavage was 1.1.

Consider U12C A117G A136G, for which the self-cleavage was 1.08.

On to G11A A22G U23C C110A, for which the self-cleavage was determined as 0.47.

With U12C U26A A43G A94G A124U A142G, the self-cleavage is 0.

In the case of U12C U14C A117U, the self-cleavage came out at 1.15.

As to G11A A141G A142C, the self-cleavage turned out to be 1.

As to U12A A65G A79G A136G, the self-cleavage was determined as 0.12.

As for U12C U46C A59G G86A, the self-cleavage came to 0.12.

With U12C A69U U73A U132C, the self-cleavage came to 0.15.

Take U12C U26C U132A: the self-cleavage turned out to be 1.02.

In the case of G10A A24U U39C, the self-cleavage came to 0.88.

Take U12C A43G U85C C128U: the self-cleavage stood at 0.36.

U12C U39C U47A U96A: the self-cleavage was 0.08.
